Experimental data: article PMC12820563
This is one part of the list. The list includes weakly bound sequences.

Each sequence was assayed against T1, MBP-FoxP3dN (UniProt Q99JB6) (assay: PD-seq (MBP pull-down with sequencing)). Settings: 20 mM Tris-HCl pH 7.5, 100 mM NaCl, 1.5 mM MgCl2, 0.4 uM protein, 0.1 uM dsDNA library, 30 min, room temperature, amylose pull-down; high values mean tight binding; double strand, one strand shown.
T1 sequence: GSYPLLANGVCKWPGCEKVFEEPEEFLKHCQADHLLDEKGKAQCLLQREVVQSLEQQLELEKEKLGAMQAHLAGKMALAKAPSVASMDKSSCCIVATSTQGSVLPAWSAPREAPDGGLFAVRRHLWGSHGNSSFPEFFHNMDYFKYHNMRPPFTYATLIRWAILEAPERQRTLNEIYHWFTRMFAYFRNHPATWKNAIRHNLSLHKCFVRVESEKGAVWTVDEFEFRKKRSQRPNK

Row | Sequence | binding signal (RPM ratio (pull-down/input))
1 | GATGATTGTTCTCCCAGCTGATGAATTTGTCGCTTCGAGTAAACAAATTTTCCTAATCTTTCTGTTCAAGCGCCATCTAC | 3.62
2 | GATGATTGTTCTCCCAGCTGATGAATTTTTGAGTTCGAGTAAACAAATTTTCCTAATCTTTCTGTTCAAGCGCCATCTAC | 0.454
3 | GATGATTGTTCTCCCAGCTGATGAATTACCTTTTTCGAGTAAACAAATTTTCCTAATCTTTCTGTTCAAGCGCCATCTAC | 0.319
4 | GATGATTGTTCTCCCAGCTGATGAATTACAACGGTCGAGTAAACAAATTTTCCTAATCTTTCTGTTCAAGCGCCATCTAC | 0.489
5 | GATGATTGTTCTCCCAGCTGATGAATTAATCACCTCGAGTAAACAAATTTTCCTAATCTTTCTGTTCAAGCGCCATCTAC | 0.759
6 | GATGATTGTTCTCCCAGCTGATGAATTGGGTCTGTCGAGTAAACAAATTTTCCTAATCTTTCTGTTCAAGCGCCATCTAC | 0.361
7 | GATGATTGTTCTCCCAGCTGATGAATTCTGTCTTTCGAGTAAACAAATTTTCCTAATCTTTCTGTTCAAGCGCCATCTAC | 1.28
8 | GATGATTGTTCTCCCAGCTGATGAATTGTGTTACTCGAGTAAACAAATTTTCCTAATCTTTCTGTTCAAGCGCCATCTAC | 3.41
9 | GATGATTGTTCTCCCAGCTGATGAATTATAAAGGTCGAGTAAACAAATTTTCCTAATCTTTCTGTTCAAGCGCCATCTAC | 0.205
10 | GATGATTGTTCTCCCAGCTGATGAATTTCGGTGCTCGAGTAAACAAATTTTCCTAATCTTTCTGTTCAAGCGCCATCTAC | 0.541
11 | GATGATTGTTCTCCCAGCTGATGAATTCATGTTGTCGAGTAAACAAATTTTCCTAATCTTTCTGTTCAAGCGCCATCTAC | 1.83
12 | GATGATTGTTCTCCCAGCTGATGAATTATCTATATCGAGTAAACAAATTTTCCTAATCTTTCTGTTCAAGCGCCATCTAC | 0.454
13 | GATGATTGTTCTCCCAGCTGATGAATTTTTTCGTTCGAGTAAACAAATTTTCCTAATCTTTCTGTTCAAGCGCCATCTAC | 0.221
14 | GATGATTGTTCTCCCAGCTGATGAATTAGCCGAATCGAGTAAACAAATTTTCCTAATCTTTCTGTTCAAGCGCCATCTAC | 0.215
15 | GATGATTGTTCTCCCAGCTGATGAATTAGCCCCATCGAGTAAACAAATTTTCCTAATCTTTCTGTTCAAGCGCCATCTAC | 0.324
16 | GATGATTGTTCTCCCAGCTGATGAATTTGATACATCGAGTAAACAAATTTTCCTAATCTTTCTGTTCAAGCGCCATCTAC | 0.938

Row | Sequence | binding signal (RPM ratio (pull-down/input))
17 | GATGATTGTTCTCCCAGCTGATGAATTTCGTAACTCGAGTAAACAAATTTTCCTAATCTTTCTGTTCAAGCGCCATCTAC | 1.69
18 | GATGATTGTTCTCCCAGCTGATGAATTATTCGTATCGAGTAAACAAATTTTCCTAATCTTTCTGTTCAAGCGCCATCTAC | 0.546
19 | GATGATTGTTCTCCCAGCTGATGAATTCTAAAGCTCGAGTAAACAAATTTTCCTAATCTTTCTGTTCAAGCGCCATCTAC | 0.248
20 | GATGATTGTTCTCCCAGCTGATGAATTAACCAATTCGAGTAAACAAATTTTCCTAATCTTTCTGTTCAAGCGCCATCTAC | 0.289
21 | GATGATTGTTCTCCCAGCTGATGAATTGGATGGGTCGAGTAAACAAATTTTCCTAATCTTTCTGTTCAAGCGCCATCTAC | 0.572
22 | GATGATTGTTCTCCCAGCTGATGAATTCTGTACTTCGAGTAAACAAATTTTCCTAATCTTTCTGTTCAAGCGCCATCTAC | 0.834
23 | GATGATTGTTCTCCCAGCTGATGAATTTTACCGATCGAGTAAACAAATTTTCCTAATCTTTCTGTTCAAGCGCCATCTAC | 0.227
24 | GATGATTGTTCTCCCAGCTGATGAATTGAGAGGGTCGAGTAAACAAATTTTCCTAATCTTTCTGTTCAAGCGCCATCTAC | 0.277
25 | GATGATTGTTCTCCCAGCTGATGAATTATCTTCCTCGAGTAAACAAATTTTCCTAATCTTTCTGTTCAAGCGCCATCTAC | 0.293
26 | GATGATTGTTCTCCCAGCTGATGAATTTTGGAAGTCGAGTAAACAAATTTTCCTAATCTTTCTGTTCAAGCGCCATCTAC | 0.195
27 | GATGATTGTTCTCCCAGCTGATGAATTTAGGGAGTCGAGTAAACAAATTTTCCTAATCTTTCTGTTCAAGCGCCATCTAC | 0.374
28 | GATGATTGTTCTCCCAGCTGATGAATTCGGCTAATCGAGTAAACAAATTTTCCTAATCTTTCTGTTCAAGCGCCATCTAC | 0.271
29 | GATGATTGTTCTCCCAGCTGATGAATTAAACGGGTCGAGTAAACAAATTTTCCTAATCTTTCTGTTCAAGCGCCATCTAC | 0.233
30 | GATGATTGTTCTCCCAGCTGATGAATTCCCAGAATCGAGTAAACAAATTTTCCTAATCTTTCTGTTCAAGCGCCATCTAC | 0.159
31 | GATGATTGTTCTCCCAGCTGATGAATTTGCAATGTCGAGTAAACAAATTTTCCTAATCTTTCTGTTCAAGCGCCATCTAC | 2.54
